The supplement of paper PMC10126150
Values marked as one replicate rest on one cluster of the flow cell; about a third of the high ones do not repeat.

Test system: ATP
Test: switch fluorescence ratio, 500 uM ATP over buffer (Cy3 cluster intensity, sum of 5 cycles each) (fold (ratio)); higher = stronger signal-on switching upon ATP binding; sequences stand for … in TCGTCGGCAGCGTCAGATGTGTATAAGAGACAGTTTTTTTTTTTTTTTTTTTTTTTTT…TC
Details: aptamer strand: ATP DNA aptamer (quencher-CACCTGGGGGAGTATTGCGGAGGAAGG + anchor), 100 nM annealed; ATP concentration: 500 uM; one replicate
Method in brief: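 Values give the fluorescence ratio for each switch-domain sequence, averaged from per-cluster ratios of summed target-cycle to summed buffer-cycle Cy3 intensity. The Cy3-labelled switching-strand clusters sat on a modified Illumina MiSeq flow-cell, were annealed to 100 nM quencher-labelled ATP aptamer, and were imaged in selection buffer, then after 15 min with 500 uM ATP at 22 °C. Five cycles ran with NaOH stripping and re-annealing between them, and clusters outside 100-1000 RFU were excluded.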
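Note: ATP exposure 15 min at 22 °C before imaging.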

Sequence	switch fluorescence ratio
ATCCAAAGTC	1.11
ATCCACGCAC	1.99
ATCCACGTCT	1.05
ATCCAGACG	0.972
ATCCAGCGGA	0.997
ATCCCAGGGA	1.1
ATCCCCTTTT	0.981
ATCCGAATCG	1.04
ATCCGAGTAA	1.53
ATCCGATACC	1.32
ATCCGCCAGT	1.8
ATCCGCCTAT	1.27
ATCCGCGCAT	5.75
ATCCGGTCTG	1.06
ATCCGTACGA	1.13
ATCCGTTGCA	1.12
ATCCTAAGTG	1.01
ATCCTACCGG	1.04
ATCCTAGAAT	0.97
ATCCTATCTC	1.05
ATCCTCGAAA	1.67
ATCCTGCAGG	0.961
ATCCTGCTTG	1.03
ATCCTGGGCC	1.01
ATCCTTATAT	1.02

Sequence	switch fluorescence ratio
ATCCTTGTCA	0.985
ATCCTTTACG	1.05
ATCGAATGTG	1.01
ATCGAATTCG	0.991
ATCGAATTTG	1.01
ATCGACGTAC	1.53
ATCGAGCGCA	1.1
ATCGAGCGTC	1
ATCGCACCCG	1.03
ATCGCGACGA	0.964
ATCGCGGGA	0.913
ATCGCGTACG	1.05
ATCGCTGCG	1.01
ATCGGAAAGT	1.03
ATCGGACCGT	1.01
ATCGGCAGTA	1.13
ATCGGCCAGA	1.02
ATCGGGAATC	1.12
ATCGGGCCTG	0.962
ATCGGGGAGC	1
ATCGTAGCAC	1.59
ATCGTATATT	0.995
ATCGTATGAA	1.01
ATCGTCCGAT	0.945
ATCGTCGCTT	0.996

Sequence	switch fluorescence ratio
ATCGTCGTG	0.983
ATCGTGCATC	1.01
ATCGTGGAAG	0.995
ATCGTGGCTT	0.992
ATCGTGTGTA	1
ATCGTTAATC	1.01
ATCGTTCATG	1.01
ATCGTTCTTA	0.949
ATCGTTGAAG	0.963
ATCGTTGGAG	0.948
ATCGTTTCGG	0.972
ATCGTTTGTA	0.994
ATCTAAAATG	1.02
ATCTAAAGCA	0.985
ATCTAAGTCA	1.67
ATCTACAGG	1.14
ATCTACTCTT	1
ATCTAGCTTT	0.961
ATCTATCGCA	1.15
ATCTATTTAG	0.956
ATCTCAGACG	1.08
ATCTCAGGCA	1.02
ATCTCCCCTC	1.16
ATCTCGGGTT	0.993
ATCTCGTATA	1.06

Sequence	switch fluorescence ratio
ATCTCTAACG	0.967
ATCTCTCACA	0.989
ATCTCTGCAT	2.99
ATCTCTGGG	0.928
ATCTGACTAA	0.997
ATCTGATGCA	1.06
ATCTGATTGC	0.976
ATCTGGATAA	1
ATCTTAAATG	1.03
ATCTTACTAT	1.01
ATCTTAGGCA	0.958
ATCTTATTCC	1.09
ATCTTCCTGA	0.983
ATCTTGCGAT	1.02
ATCTTTTGTA	0.977
ATGAAATAT	0.978
ATGAACCATA	0.996
ATGAACCG	1.05
ATGAACGCCG	1.06
ATGAACGCGA	1.08
ATGAAGTGGT	1.02
ATGAATATAG	0.985
ATGACACCGT	1.01
ATGACCCTTT	0.998
ATGACGATAC	2.01
